# Measured values taken from the supplement of paper PMC8047034.
# Structures can show the parent of a compound that is named as a salt. The list shows a part of the results. Most values come without repeats; read them as rough.
# System: Ov4Carbo
# Experiment: log2 surviving fraction (library drug vs vehicle, or drug + carboplatin vs carboplatin alone; relative to plate median); ovarian cancer lines: OVCAR4 is platinum-sensitive and Ov4Carbo platinum-resistant; higher = more cell survival
# Conditions: library drug concentration 10 µM; 7 days; carboplatin co-treatment 5 µM
row,SMILES,log2 surviving fraction
1,CC(=O)NS(=O)(=O)c1ccc(N)cc1 [sulfacetamide sodium],0.112
2,N=C(N)NC(=O)c1nc(Cl)c(N)nc1N [Amiloride hydrochloride (Midamor)],0.0298
3,C[C@@H]1C/C=C/C=C/C=C/C=C/[C@H](O[C@@H]2O[C@H](C)[C@@H](O)[C@H](N)[C@@H]2O)C[C@@H]2O[C@](O)(C[C@@H](O)C[C@H]3O[C@@H]3/C=C/C(=O)O1)C[C@H](O)[C@H]2C(=O)O [Natamycin (Pimaricin)],0.277
4,NC1CCN(c2c(F)cc3c(=O)c(C(=O)O)cn(C4CC4)c3c2Cl)C1 (stereo not given),0.864
5,Clc1ccc(CSC(Cn2ccnc2)c2ccc(Cl)cc2Cl)cc1 (stereo not given) [Sulconazole Nitrate],-1.68
